In all, about 310,000 compounds went through this assay and about 14,000 (4.5%) showed an effect of 50% or more. The effect is printed as a negative number. The list shows a part of the results.
biological target: human ether-à-go-go-related gene (hERG) potassium channel (human, UniProt Q12809); assay: primary screen, population patch clamp on CHO cells stably expressing hERG
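Note: peak tail current of the secondary pulse compared with the same well before compound.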

Chain of human ether-à-go-go-related gene (hERG) potassium channel (Q12809 whole entry, looked up): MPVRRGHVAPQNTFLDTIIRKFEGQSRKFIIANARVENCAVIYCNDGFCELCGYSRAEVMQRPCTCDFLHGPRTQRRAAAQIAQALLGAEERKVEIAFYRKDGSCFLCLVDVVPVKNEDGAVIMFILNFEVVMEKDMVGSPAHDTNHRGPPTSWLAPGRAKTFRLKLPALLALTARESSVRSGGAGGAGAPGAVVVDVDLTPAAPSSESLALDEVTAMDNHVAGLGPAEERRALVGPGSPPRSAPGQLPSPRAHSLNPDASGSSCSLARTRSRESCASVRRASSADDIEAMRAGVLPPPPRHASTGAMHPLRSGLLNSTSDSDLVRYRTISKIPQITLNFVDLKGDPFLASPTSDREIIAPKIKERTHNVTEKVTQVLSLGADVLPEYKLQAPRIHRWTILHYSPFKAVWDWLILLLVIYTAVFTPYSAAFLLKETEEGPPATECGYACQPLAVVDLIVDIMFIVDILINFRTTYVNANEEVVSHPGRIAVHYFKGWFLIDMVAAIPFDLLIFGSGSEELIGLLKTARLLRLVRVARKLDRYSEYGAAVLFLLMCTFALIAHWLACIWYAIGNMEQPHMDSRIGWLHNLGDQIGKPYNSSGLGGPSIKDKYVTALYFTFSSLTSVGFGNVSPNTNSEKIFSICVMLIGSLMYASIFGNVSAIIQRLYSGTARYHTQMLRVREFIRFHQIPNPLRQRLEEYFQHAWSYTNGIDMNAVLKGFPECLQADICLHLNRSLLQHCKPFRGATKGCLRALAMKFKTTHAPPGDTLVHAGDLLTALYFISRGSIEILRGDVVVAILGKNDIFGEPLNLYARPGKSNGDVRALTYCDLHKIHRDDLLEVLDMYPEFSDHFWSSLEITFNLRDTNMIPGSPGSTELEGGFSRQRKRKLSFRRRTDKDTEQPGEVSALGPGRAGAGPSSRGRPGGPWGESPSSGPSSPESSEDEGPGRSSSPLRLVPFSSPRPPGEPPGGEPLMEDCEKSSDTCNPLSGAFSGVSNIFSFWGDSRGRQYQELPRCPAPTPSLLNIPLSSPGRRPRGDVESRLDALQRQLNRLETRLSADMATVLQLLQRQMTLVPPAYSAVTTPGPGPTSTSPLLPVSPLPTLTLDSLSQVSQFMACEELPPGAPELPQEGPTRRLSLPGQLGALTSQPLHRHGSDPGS

Row | SMILES | hERG current change (%, negative = inhibition) at 10uM
1 | Cc1c(NC(=O)c2ncn[nH]2)cccc1-c1nc2ccccc2s1 | 23.1%
2 | COc1ccccc1/C=C/C=N/NC(=O)c1ccco1 | -0.335%
3 | CCOC(=O)C/C(=N\Nc1ncnc2ccccc12)c1ccccc1 | -15%
4 | CCCOC(=O)C1=C(C)NC(=O)NC1c1cc2c(cc1Br)OCO2 (stereo not drawn) | 13.9%
5 | O=C(Nc1cnc2ccccn2c1=O)c1ccc(Cl)cc1 | -23%
6 | COc1ccccc1N1CCN(C(=O)c2cc3c(s2)CCCCC3)CC1 | -4.94%
7 | CS(=O)(=O)Cc1cc(N2CCCC2)nc(-c2ccccc2)n1 | 10.5%
8 | O=C1OC(N2CCN(C/C=C/c3ccccc3)CC2)c2ccccc21 (stereo not drawn) | 9.57%
9 | Cc1cc2cc(C#N)c(SCC(=O)Nc3nonc3C)nc2cc1C | -0.0959%
10 | COc1ccc(C(=O)NC(=O)Nc2ncccc2C)cc1 | -10.8%
11 | CCOC(=O)c1ccc(N=C2SC(C(=O)NCCc3ccccc3)CC(=O)N2C)cc1 (stereo not drawn) | 33.1%
12 | COc1cc2cc(CN(CCCO)S(=O)(=O)c3ccccc3Cl)c(=O)[nH]c2cc1OC | -0.98%
13 | CCOCCn1c(CN2CCN(CCO)CC2)nc2c1c(=O)n(C)c(=O)n2C | 14.3%
14 | COC(=O)c1ccc(CSc2nnc(SCc3ccc(C(=O)OC)o3)s2)o1 | -10.1%
15 | O=C1c2ccccc2NC(c2ccncc2)N1c1ccccn1 (stereo not drawn) | -7.92%
16 | CCc1[nH]nc(C(=O)N2CCCC(CNS(=O)(=O)c3cccs3)C2)c1C (stereo not drawn) | 13.7%
17 | CN(CC(=O)Nc1ccc(F)c(F)c1F)C(=O)c1ccc(-n2cncn2)c([N+](=O)[O-])c1 | -40.6%
18 | NCCOc1cnn(-c2ccccc2Cl)c(=O)c1Cl | 7.19%
19 | O=C(Nc1ccccc1OC(F)F)c1ccc(-n2cncn2)c([N+](=O)[O-])c1 | -4.72%
20 | COc1cccc(OCCOc2ccc(/C=C3/SC(=S)NC3=O)cc2)c1 | 23%
21 | COC(=O)C1CCN(S(=O)(=O)c2ccc(OC)cc2)CC1 | -2.48%
22 | Oc1ccccc1/C=N/Nc1cc(N2CCCC2)nc(N2CCCC2)n1 | -4.01%
23 | COC(=O)N/N=C/c1ccccc1Cl | 19.4%

Row | SMILES | hERG current change (%, negative = inhibition) at 10uM
24 | CCCCN1C(=O)C(=O)N(CC(=O)Nc2cccc(C(C)=O)c2)C1=O | 8.76%
25 | N#Cc1c(-c2ccc(F)cc2)cc(-c2cccnc2)nc1N | 0.468%
26 | Cc1cc(NC(=O)c2coc(=O)c(Br)c2)ccc1C(C)C | 10.2%
27 | O=c1[nH]c(C2CCN(S(=O)(=O)c3ccc(C(F)(F)F)cc3)CC2)nc2c1nnn2Cc1ccccc1 | 8.98%
28 | Cc1ccccc1CN1CCN(C(=O)c2ccc(S(=O)(=O)NCc3ccco3)cc2)CC1 | -25%
29 | Cc1ccc(/C=N/Nc2ncnc3nc[nH]c23)cc1 | -18.6%
30 | CC(C(=O)NC1CCCC1)N1C(=O)c2cccc3cccc1c23 (stereo not drawn) | 11.3%
31 | CCOC(=O)c1c(C)[nH]c(C)c1S(=O)(=O)N(C)CC(=O)Nc1cccc(C)c1 | -3.84%
32 | COc1ccc(-c2nn(CCC(=O)O)cc2/C=C2\SC(N)=NC2=O)cc1 | -3.79%
33 | CC(C)N(Cc1ccccc1)C(=S)Nc1ccccc1F | 8.65%
34 | CCSc1ncc(Cl)c(C(=O)Nc2ccccc2Cl)n1 | 13.5%
35 | O=C(Nc1ccc(C(=O)N2CCCCC2)cc1)c1cccs1 | 10.6%
36 | COc1ccc(NC(=O)C(C)N2C(=O)c3ccccc3C2=O)c(OC)c1 (stereo not drawn) | 4.58%
37 | O=C(Nc1ccnn1C1CCN(Cc2c[nH]c3ccccc23)CC1)c1ccccc1 | -44.7%
38 | Cc1cccc(C(=O)O/N=C(\N)c2ccc(Cl)cc2)c1 | -15.9%
39 | COc1ccc(NC(=S)NC(NC(=O)/C=C/c2ccccc2)C(Cl)(Cl)Cl)cc1 (stereo not drawn) | 7.49%
40 | O=C(C1=NN(c2ccccc2)C2C(=O)N(c3cccc(Cl)c3)C(=O)C12)c1ccccc1 (stereo not drawn) | 1.55%
41 | COCCNc1nc2c(S(=O)(=O)c3cc(C)ccc3C)nnn2c2ccccc12 | 19.1%
42 | COCCNS(=O)(=O)c1ccc2c(c1)n(C)c(=O)n2C | -4.37%
43 | CS(=O)(=O)N(CC(=O)N1CCc2ccccc2C1)c1ccc(Br)cc1 | -30%
44 | O=C(NCCCn1ccnc1)c1cc(-c2cccnc2)nc2ccc(Br)cc12 | -45.1%
45 | O=C(CS(=O)(=O)c1ccccc1)Nc1nc(-c2ccc(F)cc2)cs1 | 16.6%
46 | C=CCOCCN(CC)CC | -21.3%

Row | SMILES | hERG current change (%, negative = inhibition) at 10uM
47 | Cc1cnc(NC(=O)Nc2ccc(OCc3ccccc3)cc2)c(Br)c1 | 19.7%
48 | O=C(N/N=C/c1ccccn1)c1[nH]c2ccc([N+](=O)[O-])cc2c1-c1ccccc1 | 54.2%
49 | O=C(Nc1ccnn1C1CCN(Cc2ccccc2OC(F)F)CC1)c1cccc(F)c1 | -52.4%
50 | CCCCCn1c(CN2CCN(c3cccc(Cl)c3)CC2)nc2c1c(=O)[nH]c(=O)n2C | -63.3%
51 | CC1CCCCN1CCCNC(=O)CN1C(=O)c2cccnc2Oc2ccccc21 (stereo not drawn) | 18.5%
52 | O=C(NC1C=CS(=O)(=O)C1)c1ccccc1 (stereo not drawn) | 23.1%
53 | Cc1ccc(OCC(=O)Nc2cccc(S(=O)(=O)N3CCCCC3)c2)c([N+](=O)[O-])n1 | -7.51%
54 | COc1ccc(-c2ccccc2)cc1NCc1ccccc1C | 10.1%
55 | O=[N+]([O-])c1ccc(NCCCN2CCOCC2)c([N+](=O)[O-])c1 | -45.7%
56 | CC1=NNC(=O)C1CC(=O)N/N=C(/C)c1cccc([N+](=O)[O-])c1 (stereo not drawn) | -39.2%
57 | C=CCNC(=S)Nc1ccc(F)cc1F | 18.2%
58 | CCCCCn1cnc2c(sc3nc4c(cc32)CSC(C)(C)C4)c1=O | -14.5%
59 | O=C(NCc1ccccn1)c1ccc(Cn2cc(C(F)(F)F)ccc2=O)cc1 | 14.6%
60 | O=C(N/N=C/c1ccc(COc2ccc(Br)cc2)o1)c1ccco1 | 2.73%
61 | COc1ccccc1NC(=O)c1ccc2c(c1)C(=O)N(c1ccccc1OC)C2=O | 5.55%
62 | COc1ccc(NC(=O)CSc2nc(O)cc(=O)n2-c2ccc(OC)cc2)cc1 | 11.7%
63 | O=C(NCCN1CCOCC1)c1ccc(CS(=O)(=O)Cc2ccccc2F)o1 | -1.63%
64 | O=C(CSc1n[nH]c(-c2cccnc2)n1)Nc1cccc(Cl)c1 | 0.151%
65 | O=C(c1c(F)cccc1F)N1CCN=C1SCc1ccccc1 | -3.14%
66 | Cc1ccc(S(=O)(=O)Nc2ccc3c(c2)nc(C)n3C)cc1 | -3.73%
67 | COc1cc(S(=O)(=O)Nc2ccc(C(=O)NCC(=O)O)cc2)ccc1NC(C)=O | 14.1%
68 | COCCCn1c(SCC(=O)OC2CCCCC2)nnc1-c1cccs1 | -34.4%
69 | COc1ccc2oc(=O)c(C(=O)NC(C)c3ccccc3)cc2c1 (stereo not drawn) | -20.1%

Row | SMILES | hERG current change (%, negative = inhibition) at 10uM
70 | COc1ccc(C(=O)NNC(=O)C(=O)N2CCCCC2)cc1OC | 59.5%
71 | Cc1cccc(C)c1OCc1cc(C(=O)NCC2CCCCC2)no1 | 21.3%
72 | CCOc1ccc2oc(=O)cc(CN3CCOCC3)c2c1 | -1.8%
73 | CCc1cccc2c(C(=O)CN3C(=O)NC(C)(c4cccc5ccccc45)C3=O)c[nH]c12 (stereo not drawn) | 37.8%
74 | O=C(NC1CCCN(Cc2ccc(Cl)cc2)C1)c1ccnc(Cl)c1 (stereo not drawn) | -38.6%
75 | N#Cc1nc(-c2ccccc2Cl)oc1N1CCOCC1 | -4.51%
76 | CCCCOc1ccccc1N | 21.8%
77 | Cc1cccc(C)c1NC(=O)c1cc(S(=O)(=O)N2CCc3ccccc32)cn1C | -1.49%
78 | COc1ccc(Cl)cc1NC(=O)CSc1ncnc2c1oc1ccccc12 | 22.9%
79 | Cc1c(C(=O)NCCc2ccccc2)oc2ccc(S(=O)(=O)N3CCOCC3)cc12 | -19.1%
80 | COCC(C)NC(C(=O)Nc1ccc(C)c(Cl)c1)c1ccccc1 (stereo not drawn) | -31.3%
81 | COc1ccccc1NC(C)C(=O)N/N=C/c1cccs1 (stereo not drawn) | 8.58%
82 | COc1ccc(NS(=O)(=O)c2ccc(NC(=O)c3ccccn3)cc2)cc1 | 6.27%
83 | CN1N=C(C(F)(F)F)CC1=O | -1.21%
84 | O=C(Cn1cnc(Cl)c1Cl)c1ccccc1 | 11.6%
85 | CC(C)c1ccccc1NCC(=O)N1CCN(Cc2ccccc2)CC1.Cl | -8.94%
86 | COCCCNCCCOc1ccc(Cl)cc1Br | -39.2%
87 | CCCN1CCC(N2CCN(c3ccc([N+](=O)[O-])cc3)CC2)CC1 | -74.3%
88 | O=C(c1csc2ccccc12)n1cccn1 | 27.3%
89 | O=C(Nc1ccc(N2CCOCC2)cc1)c1cccc(S(=O)(=O)N2CCC(Cc3ccccc3)CC2)c1 | 2.84%
90 | O=C(NCCSCc1c(F)cccc1Cl)c1ccco1 | -27.5%
